Binding signal data for 42 sequences are collected here from article PMC7819943, “Rice protein-binding microarrays: a tool to detect cis-acting elements near promoter regions in rice”.

The other results are listed elsewhere or left out.

The target in the assay is T1, OsWOX13 (Oryza sativa, UniProt Q5QMM3 1-267).
T1 sequence: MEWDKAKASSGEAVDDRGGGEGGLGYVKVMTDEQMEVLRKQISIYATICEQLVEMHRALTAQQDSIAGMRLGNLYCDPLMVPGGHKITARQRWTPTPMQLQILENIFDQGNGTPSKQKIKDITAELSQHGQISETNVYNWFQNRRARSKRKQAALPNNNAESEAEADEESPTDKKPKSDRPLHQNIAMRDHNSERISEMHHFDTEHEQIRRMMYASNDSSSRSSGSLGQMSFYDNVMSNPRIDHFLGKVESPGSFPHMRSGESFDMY
As to the kind of experiment: protein-binding microarray (RPBM); PBS, 2% BSA, 51.3 ng/ul salmon testes DNA, 50 uM zinc acetate, 200 nM TF, 25 C, 1 h; high values mean tight binding. The settings on record: protein: recombinant; tags: N-terminal polyhistidine and DsRed monomer fusion (pET32a); label: CyDye5-dUTP incorporated in the synthesized complementary strand; 3' TTTTT single-stranded linker to array surface; dsDNA, one strand shown. An outline of the steps: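 Polyhistidine-tagged DsRed fusions of transcription factors, joined at the N-terminus, were expressed in E. coli BL21-CodonPlus and isolated on Ni–NTA. They were incubated at 200 nM for 1 h at 25 °C on a custom Agilent array, double-stranded and BSA-blocked, in PBS with 2% BSA, salmon testes DNA and 50 µM zinc acetate. The binding signal is per-feature fluorescence intensity (arbitrary units) read on an Axon 4000B scanner after washing.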
Consider “TCTTGATTATTACATCCCAAAATTACTGAATCCCCTCCTCCGGAGTCACCTAGTGCAG”, for which the binding signal is 36300 fluorescence intensity (a.u.).

Take “CTGGGATTAGAGTGCTTGTCAATGGTATTTCATGGATTTTCGGAGTCACCTAGTGCAG”: the binding signal is 3340 fluorescence intensity (a.u.).

Turning to “TTCGTCAATTAACAATTTAATACTCCCTCCGTTTTATAGTCGGAGTCACCTAGTGCAG”, the binding signal was 17700 fluorescence intensity (a.u.).

With “CTAGTAATTACAAACATTGGAACTGAGTTTTGGTTGGGGTCGGAGTCACCTAGTGCAG”, the binding signal is 23800 fluorescence intensity (a.u.).

Take “ACAATCAAACGGAAATTACACTGCAAATCAGCATATCAGGCGGAGTCACCTAGTGCAG”: the binding signal is 5260 fluorescence intensity (a.u.).

Take “ATGTGATGGAAAAGTTAGAAGTTTGTGTGTAGGAAAGTTTCGGAGTCACCTAGTGCAG”: the binding signal was 4790 fluorescence intensity (a.u.).

Regarding “CCAATTTGACCACGAAATTTACTCACTCGGAATTCAGAAGCGGAGTCACCTAGTGCAG”, the binding signal was 3380 fluorescence intensity (a.u.).

For the sequence “AATAAAATTTTCTCTTAAACTACTCATCCGATCTTACGATCGGAGTCACCTAGTGCAG”, the binding signal is 3200 fluorescence intensity (a.u.).

As to “GGTCATGAGATTACTGTTAACTAATCCACCCAAAACGTAGCGGAGTCACCTAGTGCAG”, the binding signal was 4830 fluorescence intensity (a.u.).

Turning to “GAGAATTGATAACATAGGCAGTTTTGACAAGGCTGTAAGTCGGAGTCACCTAGTGCAG”, the binding signal was 20100 fluorescence intensity (a.u.).

In the case of “GTCCTTCCCCTGATTATAATACAGCAACTTAATGCCGGTTCGGAGTCACCTAGTGCAG”, the binding signal is 5070 fluorescence intensity (a.u.).

As to “CCTAATTATTCTCCTCAATTACAGAGTTTGTTACATGCATCGGAGTCACCTAGTGCAG”, the binding signal is 29700 fluorescence intensity (a.u.).

For the sequence “AGAGGAAATACGACAGCCTTGATTGTTTTCTCTCTCACTCCGGAGTCACCTAGTGCAG”, the binding signal was 3760 fluorescence intensity (a.u.).

Regarding “AAAAGAGTTATACTTAATTAATCACACTCTCCGATTAAACCGGAGTCACCTAGTGCAG”, the binding signal is 4760 fluorescence intensity (a.u.).

For “GGATTTGATCGATTGGATTTCGATTTGGCCCGCGATTTGGCGGAGTCACCTAGTGCAG”, the binding signal is 4010 fluorescence intensity (a.u.).

Regarding “GCTGATCGAATTAATTTACACATATATAGATAGATAGATACGGAGTCACCTAGTGCAG”, the binding signal is 29400 fluorescence intensity (a.u.).

With “GCTTAATTAATGGGCCTTTCAAGTGGTTCCACGAAGGCCCCGGAGTCACCTAGTGCAG”, the binding signal is 25300 fluorescence intensity (a.u.).

Regarding “ATTCCGTACTAATTATTAACATATGCCAAATTTTAAAGAACGGAGTCACCTAGTGCAG”, the binding signal was 6540 fluorescence intensity (a.u.).

As for “TGTTTTGATTGTTTCTTATTACTCCCTCCGATTATAAATACGGAGTCACCTAGTGCAG”, the binding signal was 25500 fluorescence intensity (a.u.).

As to “TCCTCACACGGGTTATGATTGGTAAAATTGCTCTAAACCCCGGAGTCACCTAGTGCAG”, the binding signal is 17600 fluorescence intensity (a.u.).

On to “TAGGATTAATAATCGATTTATTTTGCTGACATCTTGGGAGCGGAGTCACCTAGTGCAG”, for which the binding signal was 8200 ± 89.1 fluorescence intensity (a.u.).

Consider “TAGTATAATTGATTTTCCACTTAATATTTTAGCAACTACACGGAGTCACCTAGTGCAG”, for which the binding signal is 45100 fluorescence intensity (a.u.).

Take “TGCCAATTAACGTGTGCATCTTGTATCACACATTTCTCAACGGAGTCACCTAGTGCAG”: the binding signal is 10300 fluorescence intensity (a.u.).

As for “CAATGATTGCGGTTCCTTCCTCTAGCTCCTTAACGGTGATCGGAGTCACCTAGTGCAG”, the binding signal is 47200 fluorescence intensity (a.u.).

As for “CAAATATACTGATTGTATGCTTCCAGTAATTAAACCATTTCGGAGTCACCTAGTGCAG”, the binding signal was 12200 fluorescence intensity (a.u.).

As for “CGAATAACCAATCAATCAATATACAGTCATTGACAACGCACGGAGTCACCTAGTGCAG”, the binding signal was 43200 fluorescence intensity (a.u.).

Consider “TTTTCAGAAAATGATTAGCAACGAGCTTTGCCTTTGATTCCGGAGTCACCTAGTGCAG”, for which the binding signal is 5630 fluorescence intensity (a.u.).

In the case of “CAATAGTAATTGCTAGTAGATGATGATGTGGTATATTTGCCGGAGTCACCTAGTGCAG”, the binding signal was 16000 fluorescence intensity (a.u.).

As to “GCTAATACTTAATTAATCACGCGCTAATAGACCGCTCCGTCGGAGTCACCTAGTGCAG”, the binding signal is 24500 fluorescence intensity (a.u.).

With “GATTATAAATTACAAGTGTTAATTTGATGAATTTTGTTATCGGAGTCACCTAGTGCAG”, the binding signal was 19500 fluorescence intensity (a.u.).

Consider “GGTGGGTGGGCATTTGCAACAAAATAACTTACGGGGTGGACGGAGTCACCTAGTGCAG”, for which the binding signal is 3370 fluorescence intensity (a.u.).

With “AATTTACGATTGATTATTCATTCAGTGAGGCGCATGCGGTCGGAGTCACCTAGTGCAG”, the binding signal is 32700 fluorescence intensity (a.u.).

As to “AATGATAACTATTTAGATGACATACAAACAACAGGGGATGCGGAGTCACCTAGTGCAG”, the binding signal was 12400 fluorescence intensity (a.u.).

For the sequence “TGTATAATTAAGGAGCACCAAATGAGCATTGTGTGTGCGCCGGAGTCACCTAGTGCAG”, the binding signal is 10800 fluorescence intensity (a.u.).

With “GTTATAATTTCTTAGGGTCACATTATATTTGCCATCATTTCGGAGTCACCTAGTGCAG”, the binding signal was 4430 fluorescence intensity (a.u.).

As to “TTGACAGCTTGATTGTTAGATGATATGTACAAAGGAATATCGGAGTCACCTAGTGCAG”, the binding signal is 38500 fluorescence intensity (a.u.).

Regarding “GTCTGTAAATTGCGAACAGTTATTATAACTGAACGTAGAACGGAGTCACCTAGTGCAG”, the binding signal was 5090 fluorescence intensity (a.u.).

With “TTGTAATTTAGCACTTAGGGTGCTTGTGTCTGCACTGCAGCGGAGTCACCTAGTGCAG”, the binding signal was 4320 fluorescence intensity (a.u.).

As to “CCGATTGAGATAACTTCTAACATCAGTGACCTTTGCTTAGCGGAGTCACCTAGTGCAG”, the binding signal was 7790 fluorescence intensity (a.u.).

On to “CTAATTTTAACCAAAATTATAATTTTAACGTAGACCGAGCCGGAGTCACCTAGTGCAG”, for which the binding signal is 29000 fluorescence intensity (a.u.).

“TAGATGAAATGGGTTGGGTTGATTTGGGTTGAAATATGATCGGAGTCACCTAGTGCAG”: the binding signal was 6400 fluorescence intensity (a.u.).

Consider “CACGTCAAATTTGAGTCAATTCATGGTATTTATTTGGTTTCGGAGTCACCTAGTGCAG”, for which the binding signal is 4780 fluorescence intensity (a.u.).
